Biological target: T1, IL-17RA-Fc (UniProt Q96F46 33-320)
T1 construct: Interleukin-17 receptor A, bought Fc fusion; source: bought: R&D Systems
Test: ELISA; receptor-Fc coated on the plate (IL-17RA-Fc 2 ug/mL, the others 1 ug/mL in PBS); biotinylated cytokine (IL-17A 250 ng/mL; IL-17C, IL-17E, IL-17F 100 ng/mL) pre-incubated 1 h with peptide (0.128 nM to 10,000 nM), then 30 min at RT on the plate; streptavidin-HRP; percent inhibition
Settings: both partners purified

- binding result: binds
B1: human IL-17A (#317-ILB; R&D Systems) (ligand)
chain: not shown
modifications: biotin (EZ Link NHS-Biotin), in the ELISA
notes: human Interleukin-17A, bought recombinant protein; Biotinylated for the ELISA; used without biotin in the HT-29 cell assay; also called biotinylated IL-17A; source: bought: R&D Systems

From article PMC5766103 (PLoS ONE, 2018)
